For assay [1], the target named is twin-strep-tagged Jade1L (large Jade1 isoform), expressed in Expi293F cells (UniProt Q6IE81). Kind of assay: pull-down; tagged Jade1L or Jade1S purified from transfected Expi293F cells by methods similar to Oct4 (nuclear extract, anti-FLAG M2 agarose, FLAG peptide elution); co-purifying bands seen by Coomassie and identified by immunoblot. (In general: A western blot detects proteins with antibodies after separation by electrophoresis.)

Protein sequences, listed by entry. Tags and fused reporters are not part of them.
UniProt Q6ZPI0: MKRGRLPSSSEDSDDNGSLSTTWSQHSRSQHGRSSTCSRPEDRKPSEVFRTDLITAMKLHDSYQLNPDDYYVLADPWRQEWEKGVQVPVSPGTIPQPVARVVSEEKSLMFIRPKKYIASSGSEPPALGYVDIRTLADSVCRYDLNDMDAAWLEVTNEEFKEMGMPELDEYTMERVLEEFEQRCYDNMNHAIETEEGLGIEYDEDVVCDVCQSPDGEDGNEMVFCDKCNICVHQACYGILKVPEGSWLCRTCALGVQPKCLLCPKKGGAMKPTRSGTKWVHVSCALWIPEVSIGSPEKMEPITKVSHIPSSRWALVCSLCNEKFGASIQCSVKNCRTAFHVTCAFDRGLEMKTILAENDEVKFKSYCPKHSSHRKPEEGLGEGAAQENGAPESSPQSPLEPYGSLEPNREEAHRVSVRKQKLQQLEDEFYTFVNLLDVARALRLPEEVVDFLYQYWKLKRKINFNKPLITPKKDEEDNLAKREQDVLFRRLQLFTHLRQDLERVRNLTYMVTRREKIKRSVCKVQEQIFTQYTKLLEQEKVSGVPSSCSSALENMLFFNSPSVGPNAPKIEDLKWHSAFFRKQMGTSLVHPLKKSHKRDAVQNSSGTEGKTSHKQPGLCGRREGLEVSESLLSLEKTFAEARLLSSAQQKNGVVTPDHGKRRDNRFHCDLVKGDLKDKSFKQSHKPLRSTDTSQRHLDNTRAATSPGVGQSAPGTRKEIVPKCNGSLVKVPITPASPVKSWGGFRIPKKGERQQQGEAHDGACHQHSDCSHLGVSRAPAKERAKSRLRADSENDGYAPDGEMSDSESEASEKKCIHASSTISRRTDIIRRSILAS

The target in assay [2] is Jade1S (smaller Jade1 isoform), purified from Expi293F cells (UniProt Q6IE81). Described as above.
The target of assay [3] is Oct4 (Pou5f1), endogenous in mouse embryonic stem cells (mouse (endogenous in mouse ESCs)) (UniProt P20263). In words: condition: only Oct4 captured on WT octamer DNA beads instead of MORE DNA; pull-down; WT octamer DNA on FG beads, Oct1 deficient mouse ESC extract; eluate immunoblotted with anti-Oct4 and anti-Jade1.
Assay [4] has the same target. In words: co-IP; Oct1 deficient mouse ESC extracts in RIPA buffer; IP with anti-Oct4 or anti-Jade1 (isotype IgG as control), Protein G Dynabeads, 4 C; immunoblot of the other protein.
Assay [5] shares this target. Kind of assay: pull-down; WT MORE DNA on FG beads, Oct1 deficient mouse ESC extract; eluate immunoblotted with anti-Oct4 and anti-Jade1.
Assay [6] shares this target. Kind of assay: co-IP; WT mouse ESC extracts; antibodies against Oct4 and Jade1.
For assay [7], the target named is N-terminally truncated Oct4 lacking the first 130 amino acids, FLAG- and twin-strep-tagged (UniProt P20263). In words: pull-down; Expi293F cells cotransfected with tagged Oct4 constructs and twin-strep Jade1L; lysates with 20 ug/ml MG-132 incubated with MORE DNA-coupled FG beads, washed three times with 100 mM KCl buffer; blot with HRP anti-StrepII.
The target in assay [8] is FLAG- and twin-strep-tagged Oct4 (full-length), expressed in Expi293F cells (UniProt P20263). The assay is described as above.

No constants are given. Whether binding was seen depends on the method and setting. Binding seen in cells or lysates may run through a third protein. Some binding calls cover weakened binding; strength is not graded here.

“HBO1 co-purified with Jade1 from Expi293F cells (from UniProt O95251 1-611) (enzyme)”: the binding entry in assay [1] and in assay [2] was “binds” throughout.
For “ING4 co-purified with Jade1 from Expi293F cells (from UniProt Q9UNL4 1-249)”, the binding result in assay [1] is “binds”.
On to “Jade1, endogenous in mouse embryonic stem cells (from UniProt Q6ZPI0 1-834)”, for which the binding result in assay [3] was “no binding”; in assay [4] it was “binds”; in assay [5] it was “binds”; in assay [6], “binds”.
Consider “twin-strep-tagged Jade1L (large Jade1 isoform), expressed in Expi293F cells (from UniProt Q6IE81-1 1-842)”, for which the binding entry in assay [7] and in assay [8] was “binds” in each case.

(Values after paper PMC12664036.)
